A word on the IC50: it is the concentration at which inhibition is half-maximal. Low values mean higher potency, high ones lower potency.

Converted amounts (≈) assume the structure as drawn.

The test deals with B/Hong Kong/76. The experiment in a line: Plaque inhibition assay in MDCK cells. The conditions noted are these: Influenza B virus. The test is classed as cell-based, influenza B viruses.

The compound `NC(=O)c1ncn([C@@H]2O[C@H](CO)[C@@H](O)[C@H]2O)n1` [Ribavirin] had an IC50 of 54 µg/mL (≈ 221 µM).

`NC12CC3CC(CC(C3)C1)C2` [Amantadine]: the IC50 turned out to be 125 µg/mL (≈ 826 µM).

The record behind these values is patent US6475531B1, “Safe botanical drug for treatment and prevention of influenza and increasing immune function” (priority 2001, dated 2002).
